Reference: the supplement of paper PMC12217912
Some of the results follow. The full chains were built here from the parent and the listed change. Inactive controls read about 0.05.

B1: TEV protease; numbered along this chain (parent)
chain: MGESLFKGPRDYNPISSSICHLTNESDGHTTSLYGIGFGPFIITNKHLFRRNNGTLVVQSLHGVFKVKDTTTLQQHLVDGRDMIIIRMPKDFPPFPQKLKFREPQREERICLVTTNFQTKSMSSMVSDTSCTFPSGDGIFWKHWIQTKDGQCGSPLVSTRDGFIVGIHSASNFTNTNNYFTSVPKNFMELLTNQEAQQWVSGWRLNADSVLWGGHKVFMVKPEEPFQPVKEATQL

Variants of: B1
Experiment: raw area under fraction-flipped curve 0-4 h after induction (AUC4h, not background-subtracted), DNA-recorder readout of cleavage of the substrate (dimensionless); higher = more cleavage of the substrate by the protease variant
Settings: temperature: 34 °C; time window: 0-4 h after rhamnose induction
Procedure: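 In vivo DNA recorder in E. coli TOP10(DE3) ΔrhaA at 34 °C. Each TEVp single-site mutant (parent TEVp 0) is paired with a single-site variant of the 7-mer TEVs (canonical ENLYFQ|S). The substrate sits between flexible linkers in a Bxb1-sfGFP-TEVs-SsrA fusion, so cleavage stabilises Bxb1 and speeds flipping of a recombination array, read by NGS. The value is the raw area under the fraction-flipped curve over 0-4 h after rhamnose induction (AUC4h), with ≥20 reads per time point. It is not background-subtracted; inactive controls average about 0.047.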
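Note: Bxb1 expression induced with 0.2% (w/v) L-rhamnose at OD600 near 0.5, cultures sampled hourly, flipped fraction per protease–substrate barcode pair counted by paired-end Illumina sequencing.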

Row | Variant | area with substrate ENAYFQS | area with substrate ENCYFQS | area with substrate ENDYFQS | area with substrate ENEYFQS | area with substrate ENFYFQS | area with substrate ENGYFQS | area with substrate ENHYFQS | area with substrate ENIYFQS | area with substrate ENKYFQS | area with substrate ENMYFQS | area with substrate ENNYFQS | area with substrate ENPYFQS | area with substrate ENQYFQS | area with substrate ENRYFQS | area with substrate ENSYFQS | area with substrate ENVYFQS | area with substrate ENWYFQS | area with substrate ENYYFQS | area with substrate ENTYFQS
1 | N13I | 0.0489 | 0.0664 | 0.0558 | 0.0574 | 0.0634 | 0.06 | 0.0721 | 0.0503 | 0.0487 | 0.0789 | 0.0536 | 0.0665 | 0.0706 | 0.0559 | 0.0604 | 0.0716 | 0.068 | 0.0554 | 
2 | N13P | 0.0636 | 0.057 | 0.0514 | 0.0628 | 0.0594 | 0.0649 | 0.0604 |  |  | 0.0647 | 0.0608 | 0.0612 | 0.058 | 0.0582 | 0.0611 | 0.0745 | 0.0382 | 0.0246 | 0.0668
3 | L22P | 0.0396 | 0.0628 | 0.0454 | 0.0394 | 0.0539 | 0.0647 | 0.0481 | 0.0514 |  | 0.0428 | 0.0449 | 0.0403 | 0.0462 | 0.0468 | 0.0543 |  | 0.0366 | 0.0463 | 0.0583
4 | L22E | 0.0367 | 0.022 | 0.0517 | 0.0501 | 0.0503 | 0.045 | 0.0479 | 0.0736 | 0.054 | 0.0482 | 0.0526 | 0.0452 | 0.0477 | 0.0429 | 0.0462 | 0.0478 |  | 0.0455 | 0.0415
5 | S17A | 0.0441 |  | 0.0544 | 0.0529 | 0.0688 | 0.075 | 0.051 |  |  | 0.0878 | 0.0508 | 0.0117 | 0.0628 |  |  |  | 0.0535 | 0.0575 | 0.0593
6 | P14Y | 0.0751 |  | 0.063 | 0.066 | 0.0623 |  | 0.0569 |  | 0.0688 | 0.0695 | 0.0665 | 0.0804 | 0.0639 | 0.0498 | 0.0485 |  |  | 0.0616 | 0.0566
7 | P14T | 0.0507 | 0.0807 | 0.0599 | 0.0622 | 0.0685 | 0.0651 | 0.0692 | 0.122 | 0.0464 | 0.0954 | 0.0637 | 0.042 | 0.0479 | 0.0512 | 0.0569 | 0.064 |  |  | 
8 | P14M | 0.0565 |  | 0.0588 | 0.032 | 0.0733 | 0.0668 | 0.0612 |  | 0.0571 | 0.0887 |  |  | 0.0655 | 0.0608 | 0.0632 | 0.072 | 0.0542 | 0.0582 | 
9 | P14A | 0.0721 | 0.0686 | 0.0533 | 0.0247 |  |  | 0.0515 |  | 0.0574 | 0.124 | 0.0497 | 0.0619 | 0.0664 | 0.061 |  | 0.0844 |  | 0.046 | 0.0094
10 | S4H | 0.0632 | 0.074 | 0.0681 |  | 0.0559 |  |  | 0.135 |  | 0.0945 | 0.072 |  | 0.0641 | 0.0625 | 0.0596 | 0.0789 |  | 0.0621 | 0.0595
11 | S4C | 0.059 |  | 0.0581 | 0.0615 | 0.0674 | 0.0669 | 0.071 | 0.0936 | 0.0397 |  | 0.055 | 0.0583 | 0.0697 | 0.0718 | 0.0672 | 0.0636 | 0.0777 |  | 
12 | P9L | 0.0766 |  |  | 0.0681 | 0.0464 | 0.0502 |  | 0.134 | 0.0585 | 0.0792 | 0.059 | 0.0669 | 0.0525 | 0.0848 | 0.0599 | 0.0887 |  |  | 
